Among all 150,000 compounds or so, about 540 (0.36%) showed an effect of 50% or more. The list shows a part of the results.
System: Plasmodium falciparum
Experiment: Primary screen in NF54 nanoGlo assay, in single point, at 2uM, 72h; a lower Z score goes with more inhibition
Format: functional, Erythrocyte
Conditions: timepoint 72 hour

SMILES	% Inhibition [%]	Z score
CN(CCO)C(=O)c1cccc(-c2ccc(-c3ccc4c(n3)NCCC4)cc2)c1	3	-0.56
CC[C@H](C)NC(=O)c1c(O)nc2c(C)cccn2c1=O	-2	0.36
Cc1cccnc1-c1cccc(-c2ccn(Cc3cccnc3)n2)c1	-3	0.5
CN(Cc1nc2c(cnn2C)c(=O)[nH]1)CC1CCCCC1	-3	0.27
O=C(NCc1ccccc1)c1nc(-c2nc(-c3cccnc3)no2)cs1	-15	1.54
COc1ccc(CC(=O)N2CCN(S(=O)(=O)c3cc4c5c(c3)CCC(=O)N5CCC4)CC2)cc1	-4	0.65
CC(C)c1csc(C(=O)NC[C@H]2CCCN(S(C)(=O)=O)C2)n1	-7	1.04
CC[C@H]1CN(C(=O)NCC2(c3ccccc3)CC2)CCO1	1	-0.08
Cc1ccc(O[S@](=O)Nc2cccc3nccnc23)cc1	-20	2.63
CCCc1cnc(NCc2cscn2)s1	-13	2.56
C[C@H]1CNCCN1S(=O)(=O)c1ccc(OCC(F)(F)F)nc1	-15	2.05
Cc1ccc(CN[C@H]2CC(C)(C)Cc3c2cnn3-c2cccc(F)c2)o1	-5	1.03
CCOCCCC(=O)N1Cc2cn[nH]c2C[C@H](C)C1	-7	0.86
CCN(CC)C(=O)NCc1cccc(OCC(F)F)c1	-14	1.18
COc1ccc(C(=O)N2CCC(c3cn(Cc4ccc(C(F)(F)F)cc4)c4ccccc34)CC2)cc1OC	-3	0.36
CCc1c(C(=O)N[C@@H]2CC[C@@H]2COC)ccn1C	-10	1.41
Cc1noc(C)c1S(=O)(=O)N1CC2(C[C@@H](c3nnc(-c4ccccc4)o3)N(C)C2)C1	-7	0.77
Cn1ccc(NC(=O)CCNc2ncccn2)n1	-12	1.54
CCn1c(C)cc(C(=O)Cn2cnc(C#N)n2)c1C	22	-2.58
CCc1csc(CCNC(=O)[C@H]2CCS(=O)(=O)C2)n1	-11	1.56
O=C1CN(Cc2c(C(=O)N3CCCCCCC3)nc3sccn23)CCN1	-4	0.57
O=C(NCCCN1CCCC1)c1ccc2ncnc(N3CCCC3)c2c1	8	-1.08
Cc1ccccc1OCC(=O)N(Cc1nnc(-c2ccc(Cl)cc2)o1)C(C)C	-9	1.43
CCN1CCC[C@H]1C(=O)NCC1CCN(C(=O)[C@H]2CCCO2)CC1	-3	0.36
Cc1ccc(S(=O)(=O)NCCC2CCN(C)CC2)cc1	2	-0.27
CC1OC(C)(C)OC1C1CNc2nc(N)[nH]c(=O)c2N1C(=O)c1cccnc1 (stereo not drawn)	8	-0.88
CCNC(=O)N1CC(C(=O)NCc2cccc(C)c2)CC(c2ccc(OC)c(OC)c2)C1 (stereo not drawn)	-14	1.31

SMILES	% Inhibition [%]	Z score
CCOc1ccccc1CNC(=O)c1nc(-c2oc3ccc(C)cc3c2C)no1	-19	2.23
CCC(CC)C(=O)Nc1cccc(Cl)c1Cl	-6	0.87
CCc1ccc(NC(=O)CN2C(=O)NC3(CCS(=O)(=O)CC3)C2=O)cc1	5	-0.58
Cn1c(=O)n(Cc2nc(-c3ccco3)no2)c2cnccc21	-1	0.15
Cn1cc(S(=O)(=O)N2CCOC[C@H]2c2cccc(F)c2)c(C(F)(F)F)n1	-20	2.3
O=C(Nc1[nH]c(-c2ccccc2)cc1C(=O)c1ccccc1)c1ccccc1	-5	0.65
O=C(CCc1nnc(CCc2c[nH]c3ccccc23)o1)N1CCCCCCC1	-20	2.73
O=C(c1cccnc1)N1CC[C@@]2(CCCN(CCc3ccccc3)C2)C1	-17	3.27
C[C@@H](Cc1cccnc1)n1ccnc1-c1cccnc1	-5	0.56
COc1ccc(-c2cc(C(=O)N(CC3CCC3)C[C@H]3CCCO3)n[nH]2)cc1	-24	2.53
Cc1nc(CNC(=O)c2cn(C)c(C)cc2=O)sc1C	-7	1.28
O=C(Nc1cccs1)O[C@H]1COCCN(c2nc3ccccc3s2)C1	-7	0.9
O=C(Nc1ccccc1)C(Nc1ccccc1)(c1ccccc1)c1ccccc1	7	-1.15
O=C(O)C1=CCC(NC(=O)C(O)C2CCCCCCC2)C1 (stereo not drawn)	-19	2.4
Cc1cc(NC(=O)N(CCO)C(C)C)ccn1	-2	0.27
CC(C)c1ccc(NC(=O)Cn2nc3c(N4CCC[C@H](C)C4)nccn3c2=O)cc1	-11	1.75
C[C@H]1CC(=O)Nc2ccccc2N1C(=O)CN1CCN(S(=O)(=O)c2cccs2)CC1	-7	0.93
CN1C[C@@H](C(=O)N2CCc3ccccc32)CC1=O	-19	1.76
COc1cccc(C(=O)N2c3ccccc3[C@](C)(c3ccccc3)CC2(C)C)c1	2	-0.21
CCOc1ccc(-c2cc3c(=O)n(CCC(=O)NCc4ccccc4OCC)ccn3n2)cc1	3	-0.39
CCCCN(C)S(=O)(=O)NC[C@@H](c1ccco1)N(C)C	5	-0.65
COc1cc(CNCc2ccccn2)ccc1OCc1cccc(C)c1	-1	0.26
CCCN(Cc1cc(-c2ccccc2)on1)C(=O)c1cccs1	-7	1.3
O=C(NC1CCCCCCC1)c1cc[n+]([O-])cc1	6	-0.67
Cc1c(NC(=O)NCc2cc(C#N)ccc2F)ccc(F)c1N1CCNC1=O	-4	0.61
CCCc1ncc(C(=O)Nc2ccc(CN(C(C)=O)C3CC3)cc2)s1	-9	1.27
CCOc1cccc(OCC#CCN2CCN(C)CC2)c1	-22	2.39

From ChEMBL document CHEMBL4888484, “Replenishing the malaria drug discovery pipeline: Screening and hit evaluation of the MMV Hit Generation Library 1 (HGL1) against asexual blood stage Plasmodium falciparum ,using a nano luciferase reporter read-out” (2022)
